Measurements taken from PubChem BioAssay AID1918945 (Molecular Pharmacology Branch, DTP, NCI, 2023).
Certain results were filed several times, with different values. Only these are listed. There may be further records. Values given together are repeats (runs, samples, wells, individuals or studies). Additions like (4×) stand for listed records that agree. A date in brackets names the month of the test.

Tested on: 883617-216-R-J1-PDC complex spheroid viability
Experiment: Anticancer human tumor 883617-216-R-J1-PDC patient-derived bladder carcinoma cell line growth inhibition
Conditions: for IC50: compound alone; for viability, T/C: stronger effect = lower value
Description: Multicellular complex tumor spheroid response to LSD1 Inhibitor Iadademstat in combination with a variety of drugs and investigational agents in selected tumor cell lines
The current study was undertaken to assess response to LSD1 inhibitors in combination with standard-of-care drugs and investigational agents in solid tumor complex spheroid models as well as in the K-562 leukemia. Complex spheroids include a stromal component modeled by human endothelial cells (HUVEC) and fibroblasts modeled by human mesenchymal stem cells (MSCs). The concentration ranges selected for each drug and investigational agent were based upon clinically achievable concentrations if the clinical Cmax of the agent was known.
Compounds. The drugs and investigational agents used in this study are listed on Table 1. All of the agents used, including staurosporine (NSC755774) and gemcitabine (NSC613327), were obtained from the Developmental Therapeutics Program, NCI. FDA-approved anticancer drugs are available from the NCI at http://dtp.nci.nih.gov/branches/dscb/oncology_drugset_explanation.html. Drugs and investigational agents were >95% pure by proton nuclear magnetic resonance (NMR) and liquid chromatography/mass spectrometry (LC/MS). Stock solutions were prepared at 400x in DMSO, stored at -70 degrees C, and diluted in fresh medium prior to their use. The final concentration of DMSO in cell culture wells never exceeded 0.25% (v/v). The FDA-approved anticancer drug set is available from the Developmental Therapeutics Program at https://dtp.cancer.gov/organization/dscb/obtaining/available_plates.htm. All drugs and investigational agents were tested over a range starting from a high concentration at or near the clinical Cmax and decreasing in half-log increments. If the clinical Cmax for an agent had not been determined, the highest concentration tested was 10 microM.
Cell Lines. The patient-derived cancer cell (PDC) lines: 292921-168-R-J2-PDC, K24384-001-R-PDC, and 521955-158-R2-J5-PDC pancreatic carcinomas, 556581-035-R-J1 ovarian carcinoma, 324938-238-R-J1-PDC, 855422-203-R-J1-PDC and 883617-216-R-J1-PDC urothelial bladder carcinomas, 743489-274-T-PDC renal cell carcinoma, 138582-R-J1 Merkel cell tumor, K60290-347-R-J1 and K57222-313-R-J1-PDC glioblastomas, 653999-131-R-J2-PDC, LG0703-F948-PDC, and 349418-098-R-PDC non-small cell lung carcinomas, 885512-296-R-J2-PDC, 171881-019-R-J1-PDC breast carcinomas and 186277-243-T-J2-PDC and 233499-124-R-J2-PDC colon carcinomas were obtained from the NCI Patient-Derived Models Repository (PDMR, https://pdmr.cancer.gov). The established cell lines NCI/ADR-RES (RRID:CVCL_14520 and OVCAR-5 (RRID:CVCL_1628) ovarian carcinomas, 786-O (RRID:CVCL_1051) and A498 (RRID:CVCL_A498) renal cell carcinoma, NCI-H211 (ATCC, cat. CRL-5824; RRID:CVCL_1529), NCI-H196 (ATCC, cat. CRL-5823, RRID:CVCL_1509), SW 1271 (ATCC, cat. CRL-2177, RRID:CVCL_1716) and NCI-H1876 (ATCC, cat. CRL-5902, RRID:CVCL_1503) small cell lung carcinomas, MDA-MB-231 (RRID:CVCL_0062) and MDA-MB-468 (RRID:CVCL_0419)breast carcinomas (10-12). Pooled donor human umbilical vein endothelial cells (HUVEC, Lonza, cat. CC-2519) and human mesenchymal stem cells (hMSC, Lonza, cat. PT-2501) were purchased from Lonza (Walkersville, MD).
Cell Culture. All cells were maintained in an incubator at 37 degrees C and 5% CO2 with 95% humidity. The PDC lines were cultured according to standard operating procedures established by the NCI PDMR (https://pdmr.cancer.gov). Briefly all PDCs were thawed and cultured in Matrigel-coated flasks prepared with a working solution of 1X Ham's F-12 nutrient mix, without supplementation (Invitrogen, Waltham, MA, cat. 11765054), 100 U/mL penicillin-streptomycin (Invitrogen, cat. 15140122), and 2.5% Matrigel (Corning Inc., Corning, NY, cat. 354248) for the first three passages. […]
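Note: exposure lasted seven days after three days of spheroid growth.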
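Throughout, for viability, T/C: 100% = DMSO vehicle control luminescence.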

IC50 | Compound | viability, T/C (compound alone 0.316 µM) | viability, T/C (compound alone 1 µM) | viability, T/C (compound alone 3.16 µM) | viability, T/C (compound alone 10 µM)
> 100 nM [2021-11] and 9.07 nM [2021-12] | Cn1ncnc1C1c2n[nH]c(=O)c3cc(F)cc(c23)NC1c1ccc(F)cc1 (stereo unspecified) |  |  |  | 
173 nM [2021-11] and 14.9 nM [2021-12] | Nc1ncn(C2CC(O)C(CO)S2)c(=O)n1 (stereo unspecified) |  |  |  | 
 | NC1CC1c1ccc(-c2cccc(O)c2)cc1 (stereo unspecified) | 106, 116 (3×), 117 (2×), 113 (2×), 121 (2×), 102, 128, 131, 109, 118 (2×), 107, 112, 135, 122, 114, 110, 124, 115% (2×) | 112 (2×), 116 (3×), 108, 122 (4×), 120 (2×), 138, 110 (2×), 102, 99, 113, 117, 109, 106, 115, 118, 135% | 93.6, 129, 105 (2×), 113 (3×), 97.5, 115, 103, 107 (2×), 112, 93.9, 89.9, 104, 130, 96.3, 110, 111 (2×), 92.7, 114, 136, 123% | 87.4, 97, 88.7, 81.8, 88.9, 93.4, 117, 93.1, 84, 89.2, 87.2, 84.2, 102, 89.3, 104, 80.6, 91.4, 99.3, 90.7, 78.8, 86.3, 105, 101, 109, 77.1%
